Reference: paper PMC4336329 (PLoS ONE, 2015)
About 2,200 (0.71%) of roughly 310,000 compounds showed an effect of 50% or more. The effect is printed as a negative number. The list shows a part of the results.

Biological target: human ether-à-go-go-related gene (hERG) potassium channel (human, UniProt Q12809)
Assay: primary screen, population patch clamp on CHO cells stably expressing hERG

Chain of human ether-à-go-go-related gene (hERG) potassium channel (Q12809 whole entry, looked up): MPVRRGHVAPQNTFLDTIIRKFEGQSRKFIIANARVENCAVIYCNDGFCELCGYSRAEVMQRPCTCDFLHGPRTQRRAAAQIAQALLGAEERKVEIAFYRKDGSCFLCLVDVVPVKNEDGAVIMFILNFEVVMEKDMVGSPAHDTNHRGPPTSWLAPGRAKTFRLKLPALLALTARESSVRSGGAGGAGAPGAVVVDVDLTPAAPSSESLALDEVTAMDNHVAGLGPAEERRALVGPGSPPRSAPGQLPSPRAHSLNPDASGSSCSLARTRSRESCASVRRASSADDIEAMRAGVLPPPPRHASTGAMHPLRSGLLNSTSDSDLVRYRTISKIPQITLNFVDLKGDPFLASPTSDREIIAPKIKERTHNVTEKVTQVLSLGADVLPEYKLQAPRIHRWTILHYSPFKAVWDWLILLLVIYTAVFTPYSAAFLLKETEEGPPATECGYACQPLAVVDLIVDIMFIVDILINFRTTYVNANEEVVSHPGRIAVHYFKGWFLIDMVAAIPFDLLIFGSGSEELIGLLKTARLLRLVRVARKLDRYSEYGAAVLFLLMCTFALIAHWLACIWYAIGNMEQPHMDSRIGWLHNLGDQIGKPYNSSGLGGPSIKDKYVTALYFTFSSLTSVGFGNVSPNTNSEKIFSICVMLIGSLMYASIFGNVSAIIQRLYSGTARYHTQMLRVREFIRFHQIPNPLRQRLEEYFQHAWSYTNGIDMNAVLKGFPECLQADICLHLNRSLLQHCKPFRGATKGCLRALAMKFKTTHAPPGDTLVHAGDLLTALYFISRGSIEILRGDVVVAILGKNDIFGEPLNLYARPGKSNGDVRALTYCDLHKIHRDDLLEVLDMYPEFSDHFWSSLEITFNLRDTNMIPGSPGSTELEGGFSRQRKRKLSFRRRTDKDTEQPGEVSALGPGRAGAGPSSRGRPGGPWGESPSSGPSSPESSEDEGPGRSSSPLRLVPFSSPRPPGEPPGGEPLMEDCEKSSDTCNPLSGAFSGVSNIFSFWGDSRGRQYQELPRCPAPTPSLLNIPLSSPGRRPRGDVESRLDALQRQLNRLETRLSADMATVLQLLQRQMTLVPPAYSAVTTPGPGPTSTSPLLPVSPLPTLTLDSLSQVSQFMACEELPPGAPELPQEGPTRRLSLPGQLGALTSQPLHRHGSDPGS

| Structure (SMILES) | hERG current change (%, negative = inhibition) at 1uM [%] |
| --- | --- |
| O=C(Nc1ccc(N2CCOCC2)cc1)C1CC(=O)N(c2ccc(F)cc2)C1 (stereo not drawn) | -5.42 |
| O=C1C(Cl)=C(N2CCOCC2)C(=O)N1c1ccc(Br)cc1 | 12.5 |
| Cc1cccc(OCCCn2c(=O)oc3ccccc32)c1 | 16.1 |
| COc1ccc(CN2CCN(Cc3ccccc3F)CC2)cc1.O=C(O)C(=O)O | 1.94 |
| CC(C)n1c(=O)c(C=Nc2ccc(Br)cc2)c(O)n(Cc2ccco2)c1=O | 10.9 |
| COc1ccc(C(=O)OCC(=O)NCCCc2ccccc2)c(OC)c1 | 2.43 |
| Cn1nnnc1SCc1nc2ccccc2[nH]1 | -1.71 |
| CC(=O)c1cccc(NC(=O)c2nccnc2C(=O)O)c1 | 8.66 |
| O=c1[nH]c(CO)nc2c1oc1ccccc12 | 10.8 |
| O=C(NC1CCCCC1)NC12CC3CC(CC(C3)C1)C2 | 7.67 |
| COc1cc(NC(=S)NC2CC(C)(C)NC(C)(C)C2)cc(OC)c1 | 13.2 |
| CCOC(=O)Cc1c(C)[nH]c(=S)[nH]c1=O | 15.7 |
| COc1ccc(Nc2cc(C)c3ccc(O)cc3n2)cc1 | 0.561 |
| CCOC(=O)Cn1nnnc1C(CC)N(Cc1ccccc1)Cc1cc2cc(C)ccc2[nH]c1=O (stereo not drawn) | -2.05 |
| O=C1N[C@H](C(=O)O)CS1 | 1.68 |
| Cc1ccc(CNC(=O)C2(S(=O)(=O)c3ccccc3)CC=CC2)cc1 | 2.36 |
| O=C1CCCc2c1nc(-c1ccco1)n2O | 16.6 |
| CCOC(=O)/C(=N\Nc1ccc(Br)cc1)N1CC(C)OC(C)C1 (stereo not drawn) | -1.02 |
| CCOC(=O)c1c(NC(=O)C2=COCCO2)sc2c1CCN(C(=O)OC)C2 | 10.5 |
| CCN1CCc2c(OCC(=O)Nc3cccc(C)c3)cccc2C1=O | 12.4 |
| CCCC1N2CC3([N+](=O)[O-])CN1CC([N+](=O)[O-])(C2)C3(C)C (stereo not drawn) | 0.0294 |
| CCN(CC)S(=O)(=O)c1cccc(-c2nnc(SCC(N)=O)n2N)c1 | 0.795 |
| COc1cc(OC)cc(-c2nnc(SCc3ccc(C(=O)O)cc3)o2)c1 | -3.3 |

| Structure (SMILES) | hERG current change (%, negative = inhibition) at 1uM [%] |
| --- | --- |
| CCC1CCCCN1S(=O)(=O)c1ccc(S(=O)(=O)N(Cc2ccccn2)CC2CCCO2)cc1 (stereo not drawn) | 11.8 |
| Cc1cc(CN2CCCCC2)oc1C(=O)O.Cl | 4.85 |
| CCOC(=O)C1=C(NC(=S)NC(=O)c2ccccc2)c2ccccc2CC1(C)CC (stereo not drawn) | 15.2 |
| COC(=O)c1ccccc1Sc1ncnc2onc(C)c12 | 2.19 |
| Cc1ccc(C)c(-n2nnnc2Sc2nc([N+](=O)[O-])nn2C)c1 | 2.1 |
| CCc1cccc(C)c1NC(=S)NCc1ccccc1 | 11 |
| CCC(NC(=O)c1ccccc1NC(=O)c1ccccc1)C(=O)NNC(=O)CSc1nc2ccccc2o1 (stereo not drawn) | 1.8 |
| O=C(O)/C(=C1/OC(=O)c2ccccc21)c1ccccc1 | 6.12 |
| O=C(Nc1ccc(Cc2ccc(NC(=O)C3CC3)cc2)cc1)C1CC1 | 15.9 |
| CN(C)c1ccc(CC(=O)c2nc3ccccc3s2)cc1 | 12.8 |
| CC1(C(=O)OCc2cc(=O)n3cc(Br)ccc3n2)CC1(Cl)Cl (stereo not drawn) | -11.1 |
| CN(C)NC(=O)c1cccc(Cl)c1 | 15.4 |
| Nc1cccc(S(=O)(=O)Nc2ccc(SC(F)F)cc2)c1 | 11 |
| COc1ccc(NC(=O)c2ccc(Cn3cc(Cl)cn3)cc2)cc1 | 6.4 |
| Cc1c(C(=O)N2CCC(C)CC2)oc2ccc(S(=O)(=O)N3CCC4(CC3)OCCO4)cc12 | 2.19 |
| Cc1ccccc1CN1[C@@H](Cc2ccccc2)COCCS1(=O)=O | 11.1 |
| O=C(NCC1CCCO1)c1ccc2c(=O)n(Cc3ccc(Cl)cc3)c(=S)[nH]c2c1 (stereo not drawn) | 7.38 |
| CCn1cc(S(=O)(=O)NCc2ccccc2Br)cn1 | 10.2 |
| CCCCCNC(=O)c1ccc2c(=O)[nH]c3c(C(=O)NCC4CCCO4)sc(=S)n3c2c1 (stereo not drawn) | 4.82 |
| CC(C)c1ccc(C(=O)Nc2ccc(CN3CCOCC3)cc2)cc1 | -7.48 |
| CCC(C)NC(=O)Cn1cc(S(=O)(=O)N2CCCC2)c(S(=O)(=O)N2CCCC2)c1 (stereo not drawn) | 13.6 |
| O=C(O)c1cccnc1SCc1ccccc1Cl | -0.261 |
| CC(=O)Nc1ccccc1C(=O)C(=O)Nc1cccc(C(=O)NCc2ccccc2)c1 | 3.7 |

| Structure (SMILES) | hERG current change (%, negative = inhibition) at 1uM [%] |
| --- | --- |
| CCN(CC)CCCNC(=S)N(Cc1cccnc1)Cc1cc2cc(C)ccc2[nH]c1=O | 8.85 |
| O=C(CCN1C(=O)/C(=C/c2ccccc2Cl)SC1=S)NNC(=O)c1ccccc1O | 10.2 |
| CCOC(=O)c1c(C)[nH]c(C(=O)OCC(=O)N(CC(C)C)c2c(N)n(Cc3ccccc3)c(=O)[nH]c2=O)c1C | -6.78 |
| COc1ccc(C2C(C#N)=C(SC)NC3=C2C(=O)CC(C)(C)C3)cc1 (stereo not drawn) | 2.77 |
| CCCOC(=O)c1c(NC(=O)C2C3C=CC(C3)C2C(=O)O)sc2c1CCC(C)C2 (stereo not drawn) | 0.368 |
| CN(Cc1cccc(Cl)c1Cl)c1ccc(S(=O)(=O)N2CCCCC2)cc1[N+](=O)[O-] | 6.09 |
| CN(C(=O)COC(=O)COc1ccccc1Cc1ccccc1)c1ccccc1 | 7.45 |
| CCn1c(O)c(C(C#N)=C2N=c3ccccc3=N2)c2ccccc21 | 5.96 |
| CC(Oc1ccccc1)c1nnc(N)s1 (stereo not drawn) | -2.39 |
| Cc1ccc(S(=O)Cc2ccc(C(=O)N3CCN(C(=O)c4ccco4)CC3)o2)cc1 (stereo not drawn) | 9.69 |
| CCOc1ccc(NC(=O)CN(C)C(=O)CC2CCCCC2)cc1OCC | 3.43 |
| COc1ccc(S(=O)(=O)N2CC(C)OC(C)C2)cc1C(=O)N1CCCCC1 (stereo not drawn) | 9.1 |
| CCCCCOc1ccc(Cn2ccnc2)cc1[N+](=O)[O-].Cl | -9.76 |
| CC1CCN(c2nc3ccc(C(=O)NCCCN4CCCCC4)cc3s2)CC1 | -10.3 |
| COC(=O)C1CCN(C(=O)COC(=O)c2n[nH]c3ccccc23)CC1 | 5.18 |
| CC(NC(=O)CN1CCN(c2ccc(Cl)cc2)CC1)c1ccccc1 (stereo not drawn) | 9.65 |
| O=C(CCN1C(=O)c2ccccc2S1(=O)=O)Nc1ccc(F)cc1F | 8.71 |
| COc1ccc(C(=O)N2c3ccc(F)cc3CCC2C)cc1OC (stereo not drawn) | 13.7 |
| CCOc1ccc(NC(=O)NCCCn2c(C)nc3cc(C)c(C)cc32)cc1 | 8.43 |
| O=S(=O)(NC1CC2CCC1C2)c1ccc(Br)cc1 (stereo not drawn) | 3.76 |
| Cc1ccc(C(=O)Nc2ccc(C(=O)N/N=C/c3ccncc3)cc2)cc1 | 14.3 |
| O=C(NNC(=S)Nc1ccc(F)cc1)C1CC1c1ccc(Cl)cc1 (stereo not drawn) | 10.2 |
| CCCC(=O)OCC(=O)c1[nH]c(C)c(C(C)=O)c1C | 12.6 |

| Structure (SMILES) | hERG current change (%, negative = inhibition) at 1uM [%] |
| --- | --- |
| CSCCC(NS(=O)(=O)c1ccc2c(c1)OCCO2)C(=O)N(C)Cc1ccc(C)cc1 (stereo not drawn) | 6.35 |
| Cc1ccc(CNc2ncnc(N)c2[N+](=O)[O-])cc1 | 4.69 |
| CCOC(=O)/C(C#N)=C/c1cc2ccccc2nc1Cl | -4.73 |
| Cc1cc(NCCO)c2cc(O)ccc2n1.Cl | 26.3 |
| N#CC1=C(N)SC(N)=C(C#N)C1c1cccc(Oc2ccccc2)c1 | 19.6 |
| CCOc1ccc2c3c(c(=O)oc2c1OCC)CCCC3 | 13.2 |
| O=C(O)c1ccccc1C(=O)Nc1ccc(Oc2ccccc2)cc1 | 14.3 |
| C1CC1Cc1noc(CN2CCN(C3C4CC5CC(C4)CC3C5)CC2)n1 (stereo not drawn) | -15.3 |
| CN1CCSc2ccc(C(=O)Nc3ccc(Cl)cc3)cc21 | 17.1 |
| NC(=O)c1cc([N+](=O)[O-])ccc1N1CCCCC1 | 9.4 |
| CCN1CCN(C(CNS(=O)(=O)c2ccc(OC)cc2)c2cccnc2)CC1 (stereo not drawn) | -17 |
| Nc1cc(=O)[nH]c(SCC(=O)Nc2nc3ccc([N+](=O)[O-])cc3s2)n1 | 12.8 |
| O=C(O)CSc1ccc2nnc(-c3cccnc3)n2n1 | 3.33 |
| O=C(Nc1ccccc1)N1CCOCC1 | 10.9 |
| O=C(NCc1ccccc1)C1=C[C@@H](c2ccc3c(c2)OCO3)C[C@@H](OCc2ccc(CO)cc2)O1 | 4.61 |
| CCO[C@@H]1OC(C(=O)NCc2ccccc2)=C[C@H](C2CCCCC2)[C@H]1CCCO | 0.672 |
| CCCc1[nH]nc2c1C(c1ccsc1)C(C#N)=C(N)O2 (stereo not drawn) | 12.7 |
| Cc1cccc(NC(=O)Cn2nc(-c3ccco3)ccc2=O)c1C | 16.7 |
| CCCc1cc(=O)[nH]c(SCC(=O)Nc2ccc(C)c(S(=O)(=O)N3CCCCC3)c2)n1 | 11 |
| O=C(c1nc2ccccc2[nH]1)c1ccccc1[N+](=O)[O-] | 11.2 |
| CSCC[C@H](NC(=O)c1ccc(Cl)c(S(=O)(=O)N2CCCC2)c1)c1nc2ccccc2[nH]1 | -1.71 |
